This note sets out measurements from the supplement of paper PMC9174493.

The structures appear in SMILES notation. The list shows a part of the results. Single values of this set are uncertain. Values with irradiation are relative to irradiated vehicle.

Experiment [1] has as its system A549-Dual. Description: NF-kB reporter (SEAP) activity, viability-corrected, relative to vehicle (fold change vs vehicle); higher = more activation of STING-IRF / NF-kB immune response reporter.
In experiment [2] the test system is A549-Dual. Briefly: ISRE reporter (Lucia luciferase) activity, viability-corrected, relative to vehicle (fold change vs vehicle); higher = more activation of STING-IRF / NF-kB immune response reporter.
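For NF-kB reporter (SEAP) activity, viability-corrected, relative to vehicle in this document: viability correction based on the alamar blue assay, with concentrations leaving 10% survival or less dropped.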

As to `O=C(/C=C/c1cccc(S(=O)(=O)Nc2ccccc2)c1)NO` [Belinostat (PXD101)], the NF-kB reporter in experiment [1] (0.1 µM, irradiation: 8 Gy/4 fr) is 0.905; in experiment [1] (0.1 µM, irradiation: none), 1.15; in experiment [1] (0.3 µM, irradiation: 8 Gy/4 fr), 0.735; in experiment [1] (0.3 µM, irradiation: none), 1.16; in experiment [1] (1 µM, irradiation: 8 Gy/4 fr), 0.522; in experiment [1] (1 µM, irradiation: none) it was 1.22. Besides, the NF-kB reporter in experiment [1] (3 µM, irradiation: none) was 3.17; in experiment [1] (10 µM, irradiation: none) it was 5. The ISRE reporter was 1.09 in experiment [2] (0.1 µM, irradiation: 8 Gy/4 fr); 1.51 in experiment [2] (0.1 µM, irradiation: none); 0.602 in experiment [2] (0.3 µM, irradiation: 8 Gy/4 fr); 1.44 in experiment [2] (0.3 µM, irradiation: none); 0.111 in experiment [2] (1 µM, irradiation: 8 Gy/4 fr); 0.53 in experiment [2] (1 µM, irradiation: none). The ISRE reporter in experiment [2] (3 µM, irradiation: none) stood at 0.881; in experiment [2] (10 µM, irradiation: none) it was 1.48.
Turning to `CC(C)CC(NC(=O)C(Cc1ccccc1)NC(=O)c1cnccn1)B(O)O` (centres undefined) [Bortezomib (PS-341)], the NF-kB reporter in experiment [1] (0.1 µM, irradiation: 8 Gy/4 fr) is 2.75; in experiment [1] (0.1 µM, irradiation: none) it was 4.01; in experiment [1] (10 µM, irradiation: none), 2.86. In addition, the ISRE reporter in experiment [2] (0.1 µM, irradiation: 8 Gy/4 fr) stood at 0.285; in experiment [2] (0.1 µM, irradiation: none) it was 1.07; in experiment [2] (10 µM, irradiation: none) it was 0.96.
Regarding `O=C(O)c1ccc(O)cc1` [4-Hydroxybenzoic acid], the NF-kB reporter stood at 0.695 in experiment [1] (10 µM, irradiation: 8 Gy/4 fr) and 1.03 in experiment [1] (10 µM, irradiation: none). Also, the ISRE reporter was 0.723 in experiment [2] (10 µM, irradiation: 8 Gy/4 fr) and 0.84 in experiment [2] (10 µM, irradiation: none).
The corresponding values for `CC(C)OC(=O)C(C(=O)OC(C)C)=C1SC=CS1` [Malotilate] are 0.8, 0.866, 0.789 and 0.831.
In the case of `O=C[C@H](O)[C@H](O)[C@H](O)CO` [D-Ribose], the NF-kB reporter came to 0.594 in experiment [1] (10 µM, irradiation: 8 Gy/4 fr) and 0.572 in experiment [1] (10 µM, irradiation: none). Besides, the ISRE reporter came to 0.672 in experiment [2] (10 µM, irradiation: 8 Gy/4 fr) and 0.534 in experiment [2] (10 µM, irradiation: none).
Take `CCC1(O)C(=O)OCc2c1cc1n(c2=O)Cc2cc3cc(O)ccc3nc2-1` (centres undefined) [Hydroxy Camptothecine]: the NF-kB reporter in experiment [1] (0.1 µM, irradiation: 8 Gy/4 fr) amounted to 1.1; in experiment [1] (0.1 µM, irradiation: none), 1.71; in experiment [1] (0.3 µM, irradiation: 8 Gy/4 fr), 1.14; in experiment [1] (0.3 µM, irradiation: none) it was 3.24; in experiment [1] (1 µM, irradiation: 8 Gy/4 fr), 1.31; in experiment [1] (1 µM, irradiation: none), 2.82. The NF-kB reporter in experiment [1] (3 µM, irradiation: none) worked out at 6.36; in experiment [1] (10 µM, irradiation: 8 Gy/4 fr), 4.15; in experiment [1] (10 µM, irradiation: none) it was 5.62. Moreover, the ISRE reporter in experiment [2] (0.1 µM, irradiation: 8 Gy/4 fr) was determined as 1.09; in experiment [2] (0.1 µM, irradiation: none), 7.02; in experiment [2] (0.3 µM, irradiation: 8 Gy/4 fr), 1.42; in experiment [2] (0.3 µM, irradiation: none), 9.56; in experiment [2] (1 µM, irradiation: 8 Gy/4 fr), 1.7; in experiment [2] (1 µM, irradiation: none) it was 7.62. The ISRE reporter in experiment [2] (3 µM, irradiation: none) was 16.6; in experiment [2] (10 µM, irradiation: 8 Gy/4 fr) it was 1.95; in experiment [2] (10 µM, irradiation: none) it was 20.9.
With `CC(C(=O)O)c1cccc(C(=O)c2ccccc2)c1` (centres undefined) [Ketoprofen], the NF-kB reporter in experiment [1] (0.1 µM, irradiation: 8 Gy/4 fr) was 0.93; in experiment [1] (0.1 µM, irradiation: none), 1.49; in experiment [1] (0.3 µM, irradiation: 8 Gy/4 fr), 0.897; in experiment [1] (0.3 µM, irradiation: none) it was 1.04; in experiment [1] (1 µM, irradiation: 8 Gy/4 fr) it was 1.31; in experiment [1] (1 µM, irradiation: none), 0.871. Besides, the NF-kB reporter in experiment [1] (3 µM, irradiation: 8 Gy/4 fr) amounted to 1.48; in experiment [1] (3 µM, irradiation: none), 0.942; in experiment [1] (10 µM, irradiation: 8 Gy/4 fr), 0.942; in experiment [1] (10 µM, irradiation: none), 0.781. The ISRE reporter in experiment [2] (0.1 µM, irradiation: 8 Gy/4 fr) stood at 0.934; in experiment [2] (0.1 µM, irradiation: none), 0.753; in experiment [2] (0.3 µM, irradiation: 8 Gy/4 fr), 0.879; in experiment [2] (0.3 µM, irradiation: none), 0.818; in experiment [2] (1 µM, irradiation: 8 Gy/4 fr) it was 0.875; in experiment [2] (1 µM, irradiation: none) it was 0.772. Moreover, the ISRE reporter worked out at 0.932 in experiment [2] (3 µM, irradiation: 8 Gy/4 fr); 0.942 in experiment [2] (3 µM, irradiation: none); 0.743 in experiment [2] (10 µM, irradiation: 8 Gy/4 fr); 0.752 in experiment [2] (10 µM, irradiation: none).
Turning to `CC(=O)OC[C@H]1O[C@@H]([S-])[C@H](OC(C)=O)[C@@H](OC(C)=O)[C@@H]1OC(C)=O.CCP(CC)CC.[Au+]` [Auranofin], the NF-kB reporter in experiment [1] (0.1 µM, irradiation: 8 Gy/4 fr) amounted to 1.02; in experiment [1] (0.1 µM, irradiation: none), 0.998; in experiment [1] (0.3 µM, irradiation: 8 Gy/4 fr), 1.07; in experiment [1] (0.3 µM, irradiation: none), 0.947; in experiment [1] (1 µM, irradiation: 8 Gy/4 fr), 1.09; in experiment [1] (1 µM, irradiation: none) it was 1.02. The NF-kB reporter in experiment [1] (3 µM, irradiation: 8 Gy/4 fr) came to 1.16; in experiment [1] (3 µM, irradiation: none) it was 0.974. Besides, the ISRE reporter amounted to 0.953 in experiment [2] (0.1 µM, irradiation: 8 Gy/4 fr); 0.756 in experiment [2] (0.1 µM, irradiation: none); 0.863 in experiment [2] (0.3 µM, irradiation: 8 Gy/4 fr); 0.759 in experiment [2] (0.3 µM, irradiation: none); 0.621 in experiment [2] (1 µM, irradiation: 8 Gy/4 fr); 0.794 in experiment [2] (1 µM, irradiation: none). The ISRE reporter in experiment [2] (3 µM, irradiation: 8 Gy/4 fr) is 0.797; in experiment [2] (3 µM, irradiation: none) it was 0.865.
Take `CCC1(O)C(=O)OCc2c1cc1n(c2=O)Cc2cc3c(CN(C)C)c(O)ccc3nc2-1.Cl` (centres undefined) [Topotecan HCl]: the NF-kB reporter in experiment [1] (0.1 µM, irradiation: 8 Gy/4 fr) came out at 1.24; in experiment [1] (0.1 µM, irradiation: none), 1.82; in experiment [1] (0.3 µM, irradiation: 8 Gy/4 fr), 1.51; in experiment [1] (0.3 µM, irradiation: none) it was 3.45; in experiment [1] (1 µM, irradiation: 8 Gy/4 fr), 1.22; in experiment [1] (1 µM, irradiation: none) it was 3.84. Moreover, the NF-kB reporter in experiment [1] (3 µM, irradiation: none) came to 5.54; in experiment [1] (10 µM, irradiation: none), 5.19. Also, the ISRE reporter in experiment [2] (0.1 µM, irradiation: 8 Gy/4 fr) turned out to be 1.16; in experiment [2] (0.1 µM, irradiation: none) it was 5.43; in experiment [2] (0.3 µM, irradiation: 8 Gy/4 fr), 1.63; in experiment [2] (0.3 µM, irradiation: none), 9.13; in experiment [2] (1 µM, irradiation: 8 Gy/4 fr), 1.52; in experiment [2] (1 µM, irradiation: none), 12.7. The ISRE reporter in experiment [2] (3 µM, irradiation: none) amounted to 5.07; in experiment [2] (10 µM, irradiation: none), 2.56.
